In PMC4336329 (PLoS ONE, 2015):
Out of some 310,000 compounds screened, about 14,000 (4.5%) showed an effect of 50% or more. Effects have a minus sign here. Some of the results follow.

Target: human ether-à-go-go-related gene (hERG) potassium channel (human, UniProt Q12809)
Experiment: primary screen, population patch clamp on CHO cells stably expressing hERG
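Further: peak tail current of the secondary pulse compared with the same well before compound.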

Sequence of human ether-à-go-go-related gene (hERG) potassium channel (Q12809 whole entry, looked up): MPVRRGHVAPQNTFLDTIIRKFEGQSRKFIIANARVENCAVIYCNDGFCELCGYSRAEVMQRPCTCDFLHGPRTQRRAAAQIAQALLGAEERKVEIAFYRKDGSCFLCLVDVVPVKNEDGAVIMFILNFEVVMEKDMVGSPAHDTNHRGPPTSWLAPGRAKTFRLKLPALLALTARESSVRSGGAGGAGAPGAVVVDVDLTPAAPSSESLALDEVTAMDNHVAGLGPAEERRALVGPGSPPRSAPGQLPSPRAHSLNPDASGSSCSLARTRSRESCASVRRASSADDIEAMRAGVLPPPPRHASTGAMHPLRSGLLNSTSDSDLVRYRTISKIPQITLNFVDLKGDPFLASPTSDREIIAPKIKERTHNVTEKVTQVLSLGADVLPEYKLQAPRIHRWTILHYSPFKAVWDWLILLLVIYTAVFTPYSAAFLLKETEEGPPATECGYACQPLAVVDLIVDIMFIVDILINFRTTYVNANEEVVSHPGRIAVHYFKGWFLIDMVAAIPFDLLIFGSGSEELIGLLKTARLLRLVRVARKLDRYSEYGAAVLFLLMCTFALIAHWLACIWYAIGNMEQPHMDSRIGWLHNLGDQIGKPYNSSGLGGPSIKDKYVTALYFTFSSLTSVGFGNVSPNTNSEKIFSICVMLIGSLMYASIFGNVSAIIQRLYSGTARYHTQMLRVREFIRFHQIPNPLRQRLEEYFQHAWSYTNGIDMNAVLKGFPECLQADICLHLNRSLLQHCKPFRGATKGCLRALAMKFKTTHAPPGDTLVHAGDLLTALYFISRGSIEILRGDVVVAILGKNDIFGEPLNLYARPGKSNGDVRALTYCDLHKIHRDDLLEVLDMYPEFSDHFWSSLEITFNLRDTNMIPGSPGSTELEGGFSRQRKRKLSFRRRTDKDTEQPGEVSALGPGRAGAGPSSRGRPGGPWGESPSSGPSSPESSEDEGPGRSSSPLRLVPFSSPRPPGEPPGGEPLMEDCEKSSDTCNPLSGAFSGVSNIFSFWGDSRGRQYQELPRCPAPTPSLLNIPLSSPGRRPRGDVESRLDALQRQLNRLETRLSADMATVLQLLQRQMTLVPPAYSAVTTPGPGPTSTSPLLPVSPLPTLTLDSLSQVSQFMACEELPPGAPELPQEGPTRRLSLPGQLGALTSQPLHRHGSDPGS

Going from `CCOc1cc(/C=C2/C(=O)ON=C2C)ccc1OCc1ccccc1F` to `Cc1ccc(C(C)C)c(OCC(=O)c2c(O)c3ccccc3oc2=O)c1`, the “hERG current change (%, negative = inhibition) at 10uM” value falls from 10.6% to -1.4%.

First: Cc1ccc(N(C)S(=O)(=O)c2cc(-c3cnc(C4CC4)o3)ccc2C)cc1
Second: Cc1cccc(NS(=O)(=O)c2ccc3c(c2)oc(=O)n3C)c1C
The “hERG current change (%, negative = inhibition) at 10uM” value of the first is higher: 6.99% for the first, 6.2% for the second.

First: CN(CC(=O)Nc1ccc(Cl)cc1)C(=O)c1cccc(S(=O)(=O)N2CCN(Cc3ccccc3)CC2)c1
Second: Cc1cccc(C(=O)NCC(=O)N(C)CC(=O)Nc2ccc(N3CCOCC3)cc2)c1
The “hERG current change (%, negative = inhibition) at 10uM” value of the first is higher: 2.12% for the first, -7.67% for the second.

Compared with `CCOc1ccccc1NC(=S)N1CCN(c2ccc(OC)cc2)CC1`, `COc1ccc(C(=O)Nc2ccccc2N2CCOCC2)cc1S(=O)(=O)N1CCCC1` is lower in “hERG current change (%, negative = inhibition) at 10uM” value: 19.3% for the first, -24.5% for the second.

Compared with `Cc1ccc(CNC(=O)C23CN(Cc4ccccc4)CC2C(c2ccc([N+](=O)[O-])cc2)=NO3)cc1` (stereo not shown), `Cc1ccc(NC(=O)C2C3CCCC2C3c2ccccc2)cc1` (stereo not shown) is higher in “hERG current change (%, negative = inhibition) at 10uM” value: -43.7% for the first, 15.3% for the second.

First: Cc1cc(NC(=O)CSc2ncn(-c3ccccc3)n2)no1
Second: Cc1cc(NC(=O)COc2ccc3oc4ccccc4c3c2)no1
The “hERG current change (%, negative = inhibition) at 10uM” value of the first is higher: 14% for the first, -5.66% for the second.

First: Cn1c(=O)cc(OCCCC(=O)N2CCC3(CC2)OCCO3)c2ccccc21
Second: COc1ccccc1OCCNC(=O)Cc1ccc(S(=O)(=O)N2CCOCC2)s1
The “hERG current change (%, negative = inhibition) at 10uM” value of the first is lower: -6.45% for the first, -5.38% for the second.

First: Cc1ccc(NC(=O)CNc2ccc(OC(C)C)cc2)cc1
Second: COCC(=O)Nc1ccc(Br)cc1
The “hERG current change (%, negative = inhibition) at 10uM” value of the first is higher: 4.51% for the first, -2.7% for the second.

Compared with `CC(C)Nc1nnc(SCC(=O)c2c[nH]c3ccccc23)s1`, `O=C(CSc1nnnn1Cc1ccccc1)c1ccccc1F` is lower in “hERG current change (%, negative = inhibition) at 10uM” value: -4.42% for the first, -21.3% for the second.

Going from `COC(=O)C[C@H]1c2cc(F)ccc2S(=O)(=O)N1Cc1ccccc1OC` to `CCCC(=O)Nc1cc(-c2nn(C)c(=O)c3ccccc23)ccc1OC`, the “hERG current change (%, negative = inhibition) at 10uM” value falls from 1.77% to -31.8%.

Compared with `Cc1coc2cc3oc(=O)c(CC(=O)N4C[C@H]5C[C@@H](C4)c4cccc(=O)n4C5)c(C)c3cc12`, `COc1ccc(/C=C/C(=O)c2ccc3ccccc3c2O)cc1CN1CCOCC1` is higher in “hERG current change (%, negative = inhibition) at 10uM” value: -41.5% for the first, 2.19% for the second.

Compared with `C=CCn1c(-c2ccccc2)nc(=S)c2c1CCCC2`, `CCOC(=O)c1c(N)nn(C(=O)CC)c1-c1ccccc1` is higher in “hERG current change (%, negative = inhibition) at 10uM” value: 11.6% for the first, 12.7% for the second.

First: CCCNC(=O)CCn1c(-c2ccc(C)cc2)cc(C(=O)OCC)c1C
Second: CCN(CC)CCNC(=O)c1ccc(CS(=O)(=O)c2ccccc2C)o1
The “hERG current change (%, negative = inhibition) at 10uM” value of the first is higher: -6.08% for the first, -24% for the second.

First: COCCn1c(SCC(=O)NCc2ccc3c(c2)OCO3)nnc1C(C)C
Second: Cc1cc(F)ccc1NC(=O)Nc1ccc2c(c1)OCO2
The “hERG current change (%, negative = inhibition) at 10uM” value of the first is lower: 17.4% for the first, 22.3% for the second.

First: O=C(CSc1nnc(-c2cccc(S(=O)(=O)N3CCCCC3)c2)o1)NCCC1=CCCCC1
Second: CNC(=O)c1ccc(NC(=O)c2cc(S(=O)(=O)N3CCOCC3)ccc2N2CCCC2)cc1
The “hERG current change (%, negative = inhibition) at 10uM” value of the first is lower: 0.45% for the first, 7.71% for the second.

Compared with `O=C(Nc1cccc(Cl)c1)c1ccc(F)c(S(=O)(=O)NCc2ccc3c(c2)OCO3)c1`, `O=C(COc1cc(Cl)c(Cl)cc1Cl)NC(=O)Nc1ccc2c(c1)OCCO2` is higher in “hERG current change (%, negative = inhibition) at 10uM” value: -15.1% for the first, -0.056% for the second.

First: O=C(OCc1cc(Cl)ccc1OC(F)F)c1ccc([N+](=O)[O-])o1
Second: CCc1cc(=O)oc2cc(OC(C)C(=O)O)c(Cl)cc12 (stereo not shown)
The “hERG current change (%, negative = inhibition) at 10uM” value of the first is lower: 5.86% for the first, 15.4% for the second.

Compared with `O=C(c1cc2nc(C3CC3)cc(C(F)F)n2n1)N1CCOCC1`, `COC(=O)CCC(=O)OC1(C)C(=O)C=C2C=C(C3CC3)N(CCN3CCOCC3)C=C2C1=O` (stereo not shown) is lower in “hERG current change (%, negative = inhibition) at 10uM” value: 15.2% for the first, 9.64% for the second.

Going from `O=C(c1ccc(F)cc1)C1CCN(C(=O)c2c(F)cccc2F)CC1` to `COC(=O)C1=C(c2ccc3ccccc3c2)C[C@@H]2CC[C@H]1N2C(=O)N1CCCCC1`, the “hERG current change (%, negative = inhibition) at 10uM” value rises from -5.01% to 2.21%.

Going from `Cc1cccc(OCC(=O)NC(=S)NNC(=O)c2ccncc2)c1` to `Cc1ccccc1C(=O)NC(=S)Nc1ccc(Cc2ccncc2)cc1`, the “hERG current change (%, negative = inhibition) at 10uM” value falls from 16.8% to 10.4%.

First: O=C(CN(Cc1cccs1)S(=O)(=O)c1ccc(S(=O)(=O)NC2CCCCC2)cc1)Nc1ccccc1
Second: Cc1ccccc1NS(=O)(=O)c1ccc(OCCNS(C)(=O)=O)cc1
The “hERG current change (%, negative = inhibition) at 10uM” value of the first is lower: -10.5% for the first, -4.01% for the second.

Compared with `Cc1ccccc1-n1nc(-c2ccc(N)cc2)cc1N`, `COc1ccc(-c2cc(-c3ccc(O)cc3)nc(N)c2C#N)cc1` is higher in “hERG current change (%, negative = inhibition) at 10uM” value: -9.97% for the first, 3.91% for the second.

First: CCc1ccccc1NC(=O)NCCN1CCCCC1
Second: CC1(C)CC(=O)C=C(NCCN2CCN(C(=O)Nc3ccccc3)CC2)C1
The “hERG current change (%, negative = inhibition) at 10uM” value of the first is higher: 0.58% for the first, -6.06% for the second.

Compared with `Cc1ccc2c(c1)c(N=O)c(O)n2Cc1ccc(Cl)cc1`, `Cn1c(=O)c2c(nc(SCc3ccccc3)n2Cc2ccc(Cl)cc2)n(C)c1=O` is higher in “hERG current change (%, negative = inhibition) at 10uM” value: -14.4% for the first, 5.98% for the second.

Going from `CC(=O)c1cccc(NC(=O)/C(=C/c2ccco2)NC(=O)c2ccco2)c1` to `C/C(=N\NC(=O)c1ccco1)c1ccc(NC(=O)c2cccs2)cc1`, the “hERG current change (%, negative = inhibition) at 10uM” value rises from -18.6% to 5.09%.

Compared with `CCc1ccc(N(CC(=O)NC(C)C)C(=O)CCC(=O)Nc2nccs2)cc1`, `CCOC(=O)c1sc(NC(=O)COC(=O)c2ccco2)nc1C` is lower in “hERG current change (%, negative = inhibition) at 10uM” value: 13.4% for the first, 0.15% for the second.

Going from `O=C(OCC(=O)N1CCCC1=O)c1cc(Cl)ccc1O` to `CCCOC(=O)c1ccc(NC(=O)c2c(Cl)ccc(Cl)c2OC)cc1`, the “hERG current change (%, negative = inhibition) at 10uM” value rises from -17.4% to 0.998%.

Compared with `CN1C2CCC1CC(NS(=O)(=O)c1cccc(C(F)(F)F)c1)C2` (stereo not shown), `COc1ccc(NS(=O)(=O)c2ccc3c(c2)N(C(C)=O)CC(C)S3)c(OC)c1` (stereo not shown) is lower in “hERG current change (%, negative = inhibition) at 10uM” value: 12.3% for the first, 0.3% for the second.

Compared with `CC1(NC(=O)CC[N+](C)(C)CCO)CS(=O)(=O)CC1S(=O)(=O)[O-]` (stereo not shown), `CCN(CC)CCN1C(=O)C(O)=C(C(C)=O)C1c1ccccc1[N+](=O)[O-]` (stereo not shown) is higher in “hERG current change (%, negative = inhibition) at 10uM” value: -4.09% for the first, 11.7% for the second.

Going from `Cc1[nH]cc(Br)c(=O)c1Oc1ncc(C(F)(F)F)cc1Cl` to `COc1cc(C(N)=O)cc(Br)c1OC`, the “hERG current change (%, negative = inhibition) at 10uM” value falls from 13.2% to -12.5%.

Going from `Cc1noc(C)c1CN(C(=S)NC1CC1)c1ccccc1` to `COC(=O)C1=C(C)NC(=O)CC1c1ccccc1OC` (stereo not shown), the “hERG current change (%, negative = inhibition) at 10uM” value rises from -3.32% to 2.49%.

Compared with `COc1ccc(N=C(C)C2=C(O)COC2=O)cc1`, `COc1ccc([C@H]2CC(=O)C=C(c3cccc(Br)c3)C2)cc1` is lower in “hERG current change (%, negative = inhibition) at 10uM” value: 4.41% for the first, -1.14% for the second.

First: COc1ccc(Cc2nnc(N/N=C/c3ccc(O)cc3)[nH]c2=O)cc1OC
Second: COc1ccc(NC(=O)NCc2cccnc2)cc1OC
The “hERG current change (%, negative = inhibition) at 10uM” value of the first is lower: -8.51% for the first, 13.4% for the second.

First: Cc1nn(C)c(Cl)c1C(N)=O
Second: CCOC(=O)c1c(NC(=O)Cn2cnc([N+](=O)[O-])n2)sc(C)c1C
The “hERG current change (%, negative = inhibition) at 10uM” value of the first is higher: 23.3% for the first, 11% for the second.

Compared with `Cc1ccc(/C=C/C(=O)N2CCN(Cc3ccccc3)CC2)o1`, `COC(=O)c1ccc(CN2CCC(CO)(Cc3ccccc3Cl)CC2)cc1` is lower in “hERG current change (%, negative = inhibition) at 10uM” value: -0.893% for the first, -64.8% for the second.

First: COC(=O)c1ccc(NC(C)C(=O)OC)c([N+](=O)[O-])c1 (stereo not shown)
Second: CCOC(=O)/C(C#N)=C/c1cccc([N+](=O)[O-])c1
The “hERG current change (%, negative = inhibition) at 10uM” value of the first is lower: 4.81% for the first, 25% for the second.

First: CN1CCN(c2nc3c(c(=O)[nH]c(=O)n3C)n2Cc2ccc(Cl)cc2)CC1
Second: O=S(=O)(CC(c1ccccc1)N1CCCCC1)c1ccc(Cl)cc1 (stereo not shown)
The “hERG current change (%, negative = inhibition) at 10uM” value of the first is lower: -15.5% for the first, -0.713% for the second.

First: Cc1ccc(S(=O)(=O)NC(CC(=O)O)c2ccco2)cc1 (stereo not shown)
Second: CCO[C@@H]1OC(C(N)=O)=C[C@H](c2ccc(Br)cc2)[C@H]1CCCO
The “hERG current change (%, negative = inhibition) at 10uM” value of the first is higher: 8.31% for the first, 1.95% for the second.

Going from `C/C(=N/Nc1cc(-c2ccccc2)nc(-c2ccccc2)n1)c1ccc(O)cc1` to `COc1cccc(-n2c(=S)[nH]c3c(oc4ccccc43)c2=O)c1`, the “hERG current change (%, negative = inhibition) at 10uM” value rises from 12.1% to 19.2%.

Going from `CC(C)C(=O)NNC(=O)c1csc(-c2cccs2)n1` to `C=CCSc1n[nH]c(-c2cccs2)n1`, the “hERG current change (%, negative = inhibition) at 10uM” value rises from 0.646% to 14.4%.

First: CCN(CC)CCN(Cc1cc2ccc(C)c(C)c2[nH]c1=O)C(=S)NCc1ccco1
Second: CN(C)c1nc(N/N=C/c2c[nH]c3ccccc23)nc(N2CCOCC2)n1
The “hERG current change (%, negative = inhibition) at 10uM” value of the first is lower: -51.4% for the first, 8.45% for the second.

Compared with `CN1CC=C2C(C#N)=C(N)C(C#N)(C#N)[C@H](c3cccc(Cl)c3)C2C1` (stereo partly shown), `O=C(Nc1nc(-c2ccc(Cl)cc2)cs1)NC1CCCCC1` is higher in “hERG current change (%, negative = inhibition) at 10uM” value: -6.67% for the first, -0.868% for the second.

Going from `O=C(O)/C=C\C(=O)Nc1ccccc1F` to `Cc1cccc(N2CCN(C(=O)C34CC5CC(CC(C5)C3)C4)CC2)c1C`, the “hERG current change (%, negative = inhibition) at 10uM” value falls from 16% to 11.3%.

First: C#CCOCCOCCOCCNc1nc(N2CCN(C(=O)Cn3cc(CCCC[NH3+])nn3)CC2)nc(N2CCN(C(=O)[C@H]([C@@H](C)CC)n3cc(CCC[NH+]=C(N)N)nn3)CC2)n1.[Cl-]
Second: Cc1ccsc1/C=N/n1cnnc1
The “hERG current change (%, negative = inhibition) at 10uM” value of the first is higher: 13.5% for the first, 9.58% for the second.
